Out of some 420,000 compounds screened, about 64,000 (15%) were called active. Inconclusive means that the source gave no clear call. Such entries were picked first, then a sample of the others. Calls follow the shape of the dose curve; as a rule, active = well fitted inhibition curve with a large enough effect; inconclusive = small, poorly fitted or top-dose-only effect; inactive = flat fitted curve, though single readings scatter. Potencies of inconclusive entries are left out as doubtful fits.
Test: qHTS for Inhibitors of human tyrosyl-DNA phosphodiesterase 1 (TDP1): qHTS in cells in absence of CPT; also: nearly all actives have a fitted effect of over 55% in size
Conditions: DT40 Tdp1-/- hTDP1 cells, no CPT, ATP luminescence, 48 h; activity change, negative = growth inhibition: at 46.2 µM (top of the series) unless noted
How it was run: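 Growth of hTDP1-complemented DT40 Tdp1-knockout cells is measured by ATP luminescence after at least 48 hr compound exposure at 37 °C, with DMSO substituting for the 20 nM CPT used in the parallel screen.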
% is scaled to controls: 0 for no effect and ±100 for the full control effect; potency is read from the fitted curve at half-maximal effect; tags tell the direction and shape of the fitted curve.

Row | Structure (SMILES) | Potency | activity change, negative = growth inhibition
1 | O=C(OCC(=O)N1CCCc2ccccc21)c1ccccc1NCCO | inconclusive [inhibitor, single point] | –
2 | Cc1sc(NC(=O)c2ccco2)c(CN2CCN(c3ccccc3)CC2)c1C | active: 10.3 µM | –
3 | COc1ccc(Cl)cc1-c1cc(C(=O)NCC2CCCCC2)[nH]n1 | active: 11.6 µM | –
4 | O=C(N/N=C/C(Br)=C/c1ccccc1)c1ccc([N+](=O)[O-])cc1 | active: 4.11 µM | –
5 | NS(=O)(=O)c1cc(Br)c2c(c1)S(=O)(=O)NCN2 | inactive | –
6 | COc1ccc(/C(O)=C/c2nc3ccc(C(=O)NCCc4cccc(C)c4)cc3[nH]c2=O)cc1OC | active: 2.31 µM | –
7 | CCOC(=O)c1c(NC(=O)C2C3C=CC(CC3)C2C(=O)O)sc(C)c1CC (stereo not given) | inconclusive [inhibitor, single point] | –
8 | O=C(c1ccc2nc(-c3ccco3)c(-c3ccco3)nc2c1)N1CCN(c2ncccn2)CC1 | inconclusive [inhibitor, single point] | –
9 | Nc1c(S(=O)(=O)c2ccccc2)c2nc3ccccc3nc2n1Cc1ccco1 | inconclusive [inhibitor, single point] | –
10 | CCn1c(O)c(N=NC(=O)c2cccs2)c2ccccc21 | active: 14.6 µM | –
11 | CCOC(=O)c1sc(NC(=O)Nc2ccc(Cl)cc2)cc1C | active: 3.66 µM | –
12 | CCOC(=O)c1c(NC(=O)COc2cccc3c2CCN(CC)C3=O)sc2c1CCC2 | active: 8.2 µM | –
13 | CCC1=C(c2ccc(C)cc2)S(=O)(=O)N=C1N1CCC(C(=O)NCCc2cccc(OC)c2)CC1 | inconclusive [inhibitor, single point] | –
14 | Cn1ncc(Cl)c(Oc2ccc(C(C)(C)C)cc2)c1=O | inconclusive [inhibitor, single point] | –
15 | N#Cc1ccc(CN2CCCC3(CCN(C(=O)c4ccco4)CC3)C2)cc1 | inconclusive [inhibitor, single point] | –
16 | N#CC1=C(SCC(=O)Nc2nccs2)NC(=O)CC1c1ccccc1 (stereo not given) | inconclusive [inhibitor, single point] | –
17 | CC1=CC(=C(C#N)C#N)C=C(C)N1CCN1CCN(C(=O)Nc2ccc(Cl)c(Cl)c2)CC1 | inconclusive [inhibitor, single point] | –
18 | COc1ccc(-c2nc3cc(C)ccc3cc2CN(C(=O)c2cccs2)C2CC2)cc1OC | active: 13 µM | –
19 | COc1ccnc(Oc2ccccc2)c1C(=O)N/C=N/OCc1ccccc1 | inconclusive [inhibitor, single point] | –
20 | CCOc1c(C(N)=O)c(-c2ccccc2)c2c(=O)[nH]c3ccccc3n12 | – | inconclusive: -32.4% [inhibitor]
21 | CCc1c(C)sc(NC(=O)C2CC(c3c(F)cccc3Cl)=NO2)c1C#N (stereo not given) | inconclusive [inhibitor, partial curve] | –
22 | CCCOC(=O)c1ccc(O)c(OC)c1 | inactive | –
23 | CN(C)c1ncc2nc(CCc3ccccc3)c(=O)n(CCc3ccccc3)c2n1 | inactive | –
24 | COc1ccc(NC(=O)c2cc([N+](=O)[O-])ccc2N2CCCCC2)cc1OC | inconclusive [inhibitor, partial curve] | –

Row | Structure (SMILES) | Potency | activity change, negative = growth inhibition
25 | CCOc1ccc(N/C(N)=N/c2nc(CSc3nnnn3-c3ccccc3)cc(=O)[nH]2)cc1 | inconclusive [inhibitor, partial curve, poor fit] | –
26 | Clc1ccc(-n2nnnc2-c2cnc3ccc(Cl)cc3c2-c2ccccc2)cc1 | inconclusive [inhibitor, single point] | –
27 | Cn1cc(CCNCc2cn[nH]c2-c2ccc(-c3ccccc3)cc2)cn1 | inconclusive [inhibitor, single point] | –
28 | COCCn1nnnc1CN(CCCN1CCOCC1)Cc1cc2c(C)ccc(C)c2[nH]c1=O | inactive | –
29 | Cn1nnnc1SCCCNCc1cc(Cl)ccc1OCc1ccccc1 | inconclusive [inhibitor, single point] | –
30 | O=C(CN(c1ccccn1)S(=O)(=O)c1ccc(F)cc1)Nc1ccccc1 | inconclusive [inhibitor, single point] | –
31 | Cc1cc(C)c(NC(=O)c2cc(S(=O)(=O)N3CCOCC3)ccc2F)c(C)c1 | inactive | –
32 | COc1cc(C(=O)N(C(C)C)C2CCCCC2)cc(OC)c1OC | active: 10.3 µM | –
33 | COC(=O)c1ccc(OCC2c3cc(OC)c(OC)cc3CCN2C(=O)Cc2ccc(OC)c(OC)c2)cc1 (stereo not given) | inconclusive [inhibitor, single point] | –
34 | CCCCOc1ncnc2c1[nH]c1ccc(OCC)cc12 | inactive | –
35 | O=C1Nc2ccc(S(=O)(=O)NCC3CCCO3)c3cccc1c23 (stereo not given) | inactive | –
36 | COCCn1nnnc1CN1C2CCCC1CC(NC(C)=O)C2 (stereo not given) | inactive | –
37 | NNC(=S)NCc1cccnc1 | inconclusive [inhibitor, single point] | –
38 | COc1ccc(S(=O)(=O)N(CCCN2CCCC2=O)Cc2cc3c(C)cc(C)cc3[nH]c2=O)cc1 | inconclusive [inhibitor, partial curve] | –
39 | CC1=NN(c2ccccc2)C(=O)/C1=C/c1cn(C)c2ccccc12 | inconclusive [inhibitor, partial curve, poor fit] | –
40 | Cc1cc2ccccc2c(=O)n1CC(=O)NCCC1=CCCCC1 | inconclusive [inhibitor, single point] | –
41 | COc1ccc(Cc2nc3ccc(C(=O)NCCCSC)cc3o2)cc1OC | inconclusive [inhibitor, single point] | –
42 | O=C1NC2(CCCCC2)C(=O)N1/N=C/c1ccc(O)cc1O | inconclusive [inhibitor, single point] | –
43 | O=C(C[n+]1ccccc1)Nc1ccc(Oc2ccccc2)cc1 | inconclusive [inhibitor, partial curve] | –
44 | COCCNC(=O)c1ccc(-c2ccc(OC)cc2C)c2ccoc12 | inconclusive [inhibitor, partial curve, poor fit] | –
45 | Cc1ccc(NC(=O)CCS(=O)(=O)c2cc3[nH]c(=O)c(=O)[nH]c3cc2C)cc1 | inactive | –
46 | CC(=O)N1CCc2c(sc3c2c(=O)n(-c2ccccc2)c(=O)n3CC(=O)c2ccc(F)cc2)C1 | inconclusive [inhibitor, single point] | –
47 | CCCn1cnc2c(SCc3ccccc3F)nc(N)nc21 | inconclusive [inhibitor, partial curve] | –
48 | COC(=O)[C@@H]1C[C@H]2CC[C@H](O)C[C@H]2N1Cc1ccc(N2CCN(C)CC2)cc1 | inactive | –

Row | Structure (SMILES) | Potency | activity change, negative = growth inhibition
49 | CCOC(=O)c1c(C)[nH]c(N=Nc2ccc(OC)cc2)c1C | inactive | –
50 | CCc1ccc(NC(=O)C2CCCN2S(=O)(=O)c2cccc3nsnc23)cc1 (stereo not given) | inconclusive [inhibitor, partial curve] | –
51 | C=CCn1c(C)c(C(C)=O)c(N2CCN(c3ccccc3)CC2)nc1=S | inconclusive [inhibitor, single point] | –
52 | COc1cccc(/C=C/C(=O)OCC(=O)N2CCN(c3ccccc3)CC2)c1 | inactive | –
53 | COc1cc(C(=O)Nc2nnc(CC(C)(C)C)s2)cc(OC)c1OC | inconclusive [inhibitor, single point] | –
54 | CC(C)CNC(=S)N1CCN(c2nc3ccccc3s2)CC1 | inconclusive [inhibitor, partial curve] | –
55 | CCNc1nc(N)c(C(=O)C23CC4CC(CC(C4)C2)C3)s1 | inconclusive [inhibitor, single point] | –
56 | CCc1ccccc1NC(=O)c1noc(C(C)C)c1[N+](=O)[O-] | inconclusive [inhibitor, single point] | –
57 | O=C(Nc1ccccc1F)c1cc(S(=O)(=O)N2CCOCC2)cs1 | inactive | –
58 | COc1ccc(-c2csc(C(NC(C)=O)c3cccc(F)c3)n2)cn1 (stereo not given) | inconclusive [inhibitor, single point] | –
59 | COC(=O)CSc1[nH]c2ccc(F)cc2c1[N+](=O)[O-] | inconclusive [inhibitor, single point] | –
60 | CC(=O)NCCNC(=O)C1(C)Cc2c(-c3ccc(C(N)=O)cc3)ccnc2O1 (stereo not given) | inactive | –
61 | COC(=O)c1cccc(NC(=O)C2COc3ccccc3O2)c1 (stereo not given) | inconclusive [inhibitor, single point] | –
62 | Cc1ccc(S(=O)(=O)Nc2ccc3ccccc3c2)cc1 | inconclusive [inhibitor, partial curve] | –
63 | Cc1cn2c(=O)c(S(=O)(=O)NCCc3ccc(Cl)cc3)c(C)nc2s1 | inactive | –
64 | CCOC(=O)C1(Cc2ccccc2)CCN(Cc2cc(OC)c3c(c2)OCO3)CC1 | inconclusive [inhibitor, single point] | –
65 | CCCNC(=O)c1ccccc1NC(=O)c1cccc(-n2cnnn2)c1 | inconclusive [inhibitor, single point] | –
66 | CCOc1ccccc1C(=O)Nc1cc2c(cc1C)n(C)c(=O)c(=O)n2C | inconclusive [inhibitor, full curve] | –
67 | COc1ccc(-c2nc3sc(CCNC(=O)c4ccc(C(C)(C)C)cc4)c(C)n3n2)cc1 | active: 8.2 µM | –
68 | CCOC(=O)c1ccc(NC(=O)NCc2cccnc2)cc1 | inconclusive [inhibitor, single point] | –
69 | Nc1nn2cc(-c3ccc(Br)cc3)nc2c2ccccc12 | inconclusive [inhibitor, single point] | –
70 | Cc1cc2c(=O)n(C)c(SCC(=O)Nc3ccccc3C)nc2s1 | inconclusive [inhibitor, partial curve, poor fit] | –

Reference: PubChem BioAssay AID686978 (National Center for Advancing Translational Sciences (NCATS), 2013)
